The values below come from PubChem BioAssay AID1745853 (National Center for Advancing Translational Sciences (NCATS), 2022).

Each structure is given as a SMILES string. Several values for one entry are separate records, joined by “and”; a condition that tells them apart may be missing. Equal values may be shown once. Some of the results follow. Shown are side measurements of this screen, not its main read-out; they come without a call.

Common to all, as to assay: Primary Screen for Target Class Profiling of Small Molecule Inhibitors of Methyltransferases
Assay [1] deals with Glycine N-methyltransferase (Homo sapiens) (UniProt Q14749). The conditions noted are these: purified enzyme, MTase-Glo SAH luminescence; measured here: GNMT inhibition; at 40 µM; stronger effect = lower value. The method, boiled down: (§1)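 Each enzyme was assayed with SAM and its substrate. SAH formation detected by MTase-Glo luminescence; single-point 40 uM screen[…].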

The target in assay [2] is Guanidinoacetate N-methyltransferase (Homo sapiens) (UniProt Q14353). To be noted: purified enzyme, MTase-Glo SAH luminescence; measured here: GAMT inhibition; at 40 µM; stronger effect = lower value. In outline:
as §1

In assay [3] the target is Histamine N-methyltransferase (Homo sapiens) (UniProt P50135). To be noted: purified enzyme, MTase-Glo SAH luminescence; measured here: HNMT inhibition; at 40 µM; stronger effect = lower value. The method, boiled down:
as §1

The target of assay [4] is Nicotinamide N-methyltransferase (Homo sapiens) (UniProt P40261). The conditions noted are these: purified enzyme, MTase-Glo SAH luminescence; measured here: NNMT inhibition; at 40 µM; stronger effect = lower value. In outline: as §1
Assay [5] deals with Phenylethanolamine N-methyltransferase (Homo sapiens) (UniProt P11086). The conditions noted are these: purified enzyme, MTase-Glo SAH luminescence; measured here: PNMT inhibition; at 40 µM; stronger effect = lower value. In outline:
as §1
% is set by controls: 0 for no effect and ±100 for the full control effect.

For the molecule `CCN1CCN(C(=O)c2cc3n(n2)CC(C)(C(=O)NCc2ccccc2)N(C)C3=O)CC1` (stereo not given), the activity change, negative = inhibition in assay [1] turned out to be 3.29%; in assay [2], 4.04%; in assay [3], 6.58%; in assay [4], 3.84%; in assay [5], 1.56%.

With `CCCN1C(=O)c2c(C(=O)NCc3ccccc3OCC)ncn2CC1(C)C(=O)NCc1ccc(F)cc1` (stereo not given), the activity change, negative = inhibition in assay [1] is 3.91%; in assay [2] it was 0.992%; in assay [3], 4.3%; in assay [4], 0.727%; in assay [5] it was 11.3%.

For the molecule `Cc1ccc(Cn2c(=O)c3ccccc3n3c(-c4ccc(O)cc4)nnc23)cc1`, the activity change, negative = inhibition in assay [1] is -11.1%; in assay [2], 4.07%; in assay [3], 5.76%; in assay [4], 0.401%; in assay [5], -2.94%.

Turning to `O=C(c1cn(Cc2cncn2Cc2ccc(Br)cc2)cc1-c1cccc2ccccc12)N1CCOCC1`, the activity change, negative = inhibition is -6.98% in assay [1]; -7.86% in assay [2]; -9.62% in assay [3]; -41.8% in assay [4]; -7.86% in assay [5].

In the case of `O=C(c1ccccn1)N1CC(F)(F)C[C@H]1c1nc(-c2ncccn2)no1`, the activity change, negative = inhibition in assay [1] is -9.67%; in assay [2] it was 2.06%; in assay [3] it was 3.04%; in assay [4], -3.29%; in assay [5], 12.5%.

With `Cn1c(CNC(=O)CC2CCN(S(C)(=O)=O)C2)nc2ccccc21` (stereo not given), the activity change, negative = inhibition in assay [1] was -1.01%; in assay [2] it was 1.68%; in assay [3], 0.122%; in assay [4], -0.37%; in assay [5], -4.02%.

For `CCN1C(=O)N(Cc2cccc(OC)c2)C(=O)C12CCN(Cc1nc3ccccc3n1C)CC2`, the activity change, negative = inhibition was -0.648% in assay [1]; -4.29% in assay [2]; -2.04% in assay [3]; -13.5% in assay [4]; -4.82% in assay [5].

Regarding `CC(C)Cn1c(=O)c2ccc(C(=O)NC(C)C)cc2n2c(=O)n(CC(N)=O)nc12`, the activity change, negative = inhibition in assay [1] is -4.78%; in assay [2] it was 0.774%; in assay [3], -1.8%; in assay [4], -5.82%; in assay [5], -1.76%.

Turning to `COCC1CN(C(=O)c2ccc(OC)nc2OC)CC12CCNCC2` (stereo not given), the activity change, negative = inhibition was -10.8% in assay [1]; -11.4% in assay [2]; -2.88% in assay [3]; -12.9% in assay [4]; -12.3% in assay [5].

As to `CC1CCCCC1NC(=O)Cn1c(=O)oc2cc(S(=O)(=O)N3CCCC3)ccc21` (stereo not given), the activity change, negative = inhibition in assay [1] was -9.86%; in assay [2] it was 0.827%; in assay [3] it was -1.6%; in assay [4] it was -2.2%; in assay [5], -11.1%.

Regarding `CC1CC2OCC3(O)CCC(O)C(C14CC(c1ccoc1)OC4=O)C23CO` (stereo not given), the activity change, negative = inhibition in assay [1] is -0.775%; in assay [2] it was 0.382%; in assay [3], -0.666%; in assay [4], -10.8%; in assay [5] it was 5.98%.

In the case of `CN1C(=O)c2cc3ccccc3n2CC1(C)C(=O)NCC(=O)NCCc1ccc(Cl)cc1` (stereo not given), the activity change, negative = inhibition in assay [1] is -0.388%; in assay [2], 0.239%; in assay [3] it was 1.69%; in assay [4], 4.31%; in assay [5], 0.581%.

Turning to `CCOc1ccccc1CN1C(=O)c2cc3ccc(OC)cc3n2CC1(C)C(=O)NC1CCCC1` (stereo not given), the activity change, negative = inhibition was 5.32% in assay [1]; 3.24% in assay [2]; 6.06% in assay [3]; 6.52% in assay [4]; 1.79% in assay [5].

With `Cc1ccc(NC(=O)CSc2nnc3n(Cc4ccccc4)c(=O)c4ccccc4n23)c(C)c1`, the activity change, negative = inhibition in assay [1] was -2.51%; in assay [2] it was -1.92%; in assay [3] it was 3.13%; in assay [4], -1.27%; in assay [5], -3.06%.

In the case of `Cc1ccc(CCNC(=O)Cn2ccc3cc(S(=O)(=O)N4CCCCC4)ccc32)cc1`, the activity change, negative = inhibition worked out at 9.27% in assay [1]; 1.08% in assay [2]; 7.42% in assay [3]; 6.55% in assay [4]; 3.85% in assay [5].

Regarding `C=CCn1c(=O)c2ccc(C(=O)NC(C)CC)cc2n2c(=O)n(CC(=O)Nc3cccc(C)c3)nc12` (stereo not given), the activity change, negative = inhibition in assay [1] was found to be 5.73%; in assay [2], 0%; in assay [3], 5.04%; in assay [4] it was 4.16%; in assay [5], 1.51%.

`CCC1c2ccc(C)n2CCN1C(=O)Nc1cccc(Cl)c1` (stereo not given): the activity change, negative = inhibition in assay [1] is -11.1%; in assay [2], 4.98%; in assay [3], -4.72%; in assay [4], -9.62%; in assay [5], -6.21%.

For `Cc1cc2c(cc3n2CC(C)(C(=O)NC2CCCCC2)N(Cc2ccccc2Cl)C3=O)o1` (stereo not given), the activity change, negative = inhibition in assay [1] was 0.7%; in assay [2], 0.71%; in assay [3], 0.581%; in assay [4], 1.36%; in assay [5], -4.75%.

Consider `Cn1nccc1C(=O)N1C[C@@H](COc2ccccc2)[C@H](C(N)=O)C1`, for which the activity change, negative = inhibition was -1.21% in assay [1]; -3.06% in assay [2]; 0.481% in assay [3]; 1.94% in assay [4]; -2.16% in assay [5].

As for `CN1C(=O)c2cc(NC(=O)c3ccc4c(c3)OCO4)ccc2N2CCN=C12`, the activity change, negative = inhibition in assay [1] was -6.31%; in assay [2], 0%; in assay [3], 4.4%; in assay [4] it was 11.7%; in assay [5], -4%.

Take `CCC(C)NC(=O)c1ccc2c(=O)n(CCC(C)C)c3nn(Cc4cccc(F)c4)c(=O)n3c2c1` (stereo not given): the activity change, negative = inhibition is -2.79% in assay [1]; 1.04% in assay [2]; 1.36% in assay [3]; -7.18% in assay [4]; -3.31% in assay [5].

With `Cc1cccc(CNC(=O)C(C)n2ccc3cc(S(=O)(=O)N4CCCC4)ccc32)c1` (stereo not given), the activity change, negative = inhibition in assay [1] turned out to be 8.06%; in assay [2], 0%; in assay [3], 2.62%; in assay [4], 8.69%; in assay [5], 4.49%.

With `COc1cccc(Cn2nc3n(CC(C)C)c(=O)c4ccc(C(=O)NC(C)C)cc4n3c2=O)c1`, the activity change, negative = inhibition is 1.77% in assay [1]; 5.76% in assay [2]; 1.71% in assay [3]; -1.15% in assay [4]; 2.94% in assay [5].

On to `CN1CCC(Cc2ccc(C(=O)N3CCCC3)cc2)CC1`, for which the activity change, negative = inhibition in assay [1] is -1.65%; in assay [2], -1.61%; in assay [3], -6.17%; in assay [4] it was -4.08%; in assay [5], 1.6%.

As to `COc1ccc2c(c1)c(NC(C)=O)c1n2CC(C)(C(=O)NC2CCCCC2)N(CCC(C)C)C1=O` (stereo not given), the activity change, negative = inhibition in assay [1] is 3.37%; in assay [2], 0%; in assay [3], 6.96%; in assay [4], 3.74%; in assay [5], 0.879%.

In the case of `CC(C)OCCCN1C(=O)c2cc(-c3ccc(C(C)C)cc3)nn2CC1(C)C(=O)NC1CCCCC1` (stereo not given), the activity change, negative = inhibition in assay [1] was -8.1%; in assay [2] it was 4.07%; in assay [3] it was 4.5%; in assay [4], -2.08%; in assay [5], 0.273%.

In the case of `Cc1ccsc1C(=O)N1CCC(c2nc(CCOCC3CC3)no2)C1` (stereo not given), the activity change, negative = inhibition is -0.899% in assay [1]; 0.115% in assay [2]; 0.049% in assay [3]; -1.22% in assay [4]; -0.384% in assay [5].

As for `CC(=O)O[C@@H]1C[C@@]23C[C@@]24CC[C@H](O[C@@H]2OC[C@H](O)[C@H](O)[C@H]2O)C(C)(C)[C@@H]4CC[C@H]3[C@]2(C)[C@@H](O)C34O[C@H](C[C@@H](C)[C@@H]3[C@@]12C)[C@@H](C(C)(C)O)O4`, the activity change, negative = inhibition is -10.6% in assay [1]; -10.8% in assay [2]; 7.14% in assay [3]; -13.8% in assay [4]; 0.778% in assay [5].

As for `COc1ccccc1S(=O)(=O)Nc1ccc2c(c1)CN(C)C(=O)N2`, the activity change, negative = inhibition in assay [1] was -19.8%; in assay [2], -11.1% and -0.794%; in assay [3], 0.349%; in assay [4], -25% and -8.67%; in assay [5], -3.36% and 3.81%.
